Measurements as given in PMC6832551, “An Antiviral Peptide from Alopecosa nagpag Spider Targets NS2B–NS3 Protease of Flaviviruses” (Toxins, 2019).
Where a name gives a salt, the structure may show the parent alone.

How the values were obtained:
[1] = test system: recombinant DENV2 NS2B–NS3 protease; test: Real-time fluorescence-based protease inhibition assay, DENV2 NS2B–NS3 protease; format: biochemical, dengue serotype-2 virus (DENV2); conditions: real-time detection, RFU, excitation 360 nm, emission 460 nm
[2] = test system: DENV2; test: DENV2 replication in infected cells, qPCR of DENV genes; format: cell-based, dengue serotype-2 virus (DENV2); conditions: HUVECs and A549 cells, DENV2 at 1 MOI for 24 h (legend: MOI 0.5), qPCR relative to human Hprt; three independent experiments

## CC(C)C[C@H]1C(=O)N2CCC[C@H]2[C@]2(O)O[C@](NC(=O)[C@@H]3C=C4c5cccc6[nH]c(Br)c(c56)C[C@H]4N(C)C3)(C(C)C)C(=O)N12 [bromocriptine, Bromocriptine mesylate]
[1]
  inhibition of the DENV2 NS2B–NS3 protease (in words): also inhibits the DENV2 NS2B–NS3 protease
[2]
  replication of DENV2 (in words): also inhibits the DENV2 NS2B–NS3 protease and its replication
